From ChEMBL document CHEMBL4888484, “Replenishing the malaria drug discovery pipeline: Screening and hit evaluation of the MMV Hit Generation Library 1 (HGL1) against asexual blood stage Plasmodium falciparum ,using a nano luciferase reporter read-out” (2022) come the findings set out here.

The term % Inhibition denotes the relative decrease from the control value, in per cent.

Screen size: about 150,000 compounds; about 540 (0.36%) showed an effect of 50% or more. Some of the results follow.

This experiment has as its system Plasmodium falciparum. Nature of the experiment: Primary screen in NF54 nanoGlo assay, in single point, at 2uM, 72h; a lower Z score goes with more inhibition. Format: functional, Erythrocyte. The following applies: timepoint 72 hour.
On to `CCn1nc(C(=O)N[C@H]2CCCc3ccccc32)cc1-c1ccsc1`, for which the “% Inhibition” value is -14% and the Z score amounted to 2.58.
In the same order, the values of `CC(C)Cc1cc(CNCc2ccc(-c3cc[nH]n3)s2)on1` are -7% and 0.84.
With `O=C(Cc1ccncc1)N1CCC[C@@]2(C=Cc3ccccc3O2)CC1`, the “% Inhibition” value worked out at 2% and the Z score was -0.33.
For `COCc1nc(C2(CC3CC3)CCN(C(=O)Cc3ccc(C)cc3)CC2)no1`, in that order: -4% and 0.5.
For `COCCN(Cc1ccoc1)S(=O)(=O)CCc1ccccc1`, in that order: -6% and 0.71.
As for `COc1ccc(-n2nc3ccc(NC(=O)c4nc[nH]n4)cc3n2)cc1Cl`, the “% Inhibition” value is given as -20% and the Z score was 2.49.
In the same order, the values of `O=c1ccc(C(F)(F)F)nn1Cc1ccn(-c2ccccc2)n1` are -16% and 2.63.
In the case of `CCC1CN(Cc2nnsc2Cl)CCN1CC(C)O` (centres undefined), the “% Inhibition” value is on record as -7% and the Z score worked out at 0.83.
In the same order, the values of `O=C(NCCn1ccnc1-c1cnccn1)OCc1ccccc1` are -4% and 0.8.
Turning to `CCOC(=O)[C@@H](C#N)C1(C#N)CCCC1`, the “% Inhibition” value is -2% and the Z score came to 0.34.
For `O=C(COc1cccc(Br)c1)Nc1ccc2c(c1)CCC2`, in that order: 4% and -0.73.
For `Cc1ccc(N2CCC[C@]3(CCCN(Cc4ccccc4)C3)C2)nn1`, in that order: -10% and 1.12.
For the compound `Cc1ccc(C)c(C(=O)Nc2cccc(-c3nnc4n3CCCC4)c2)c1`, the “% Inhibition” value is -40% and the Z score turned out to be 3.63.
For `Cc1cc(C)n(-c2nc3c(c(=O)n2CC(=O)N2CCCC2)CCC3)n1`, in that order: 4% and -0.5.
In the same order, the values of `CCNc1ccc(Br)cc1NC(=O)[C@H](C)OC` are -16% and 2.26.
In the same order, the values of `COc1cc2c3cc1Oc1cc(ccc1O)C[C@@H]1c4c(cc(OC)c(O)c4Oc4ccc(cc4)C[C@@H]3[N+](C)(C)CC2)CC[N+]1(C)C` are -3% and 0.25.
Turning to `CCN(C(=O)c1cccn1C1CCCC1)[C@@H](C)CS(C)(=O)=O`, the “% Inhibition” value was -6% and the Z score is reported as 0.86.
In the same order, the values of `O=C(CN1CCCC[C@H]1c1cc2ccccc2[nH]1)NCC(F)(F)F` are 0% and 0.01.
Regarding `CCOC(=O)N1CCC2(O)CCCCC2[C@@H]1c1ccccc1OC` (some centres undefined), the “% Inhibition” value stood at 2% and the Z score is -0.22.
`CC[C@](C)(NS(=O)(=O)c1ccc(-n2cc(C)cn2)c(F)c1)c1nccs1`: the “% Inhibition” value was -1% and the Z score was 0.16.
For `CCc1nnc(CN(C)C2CCCCC2C)s1` (centres undefined), in that order: -16% and 2.31.
For `NCc1nc(N2CCCC2)c2cc(Cl)ccc2n1`, in that order: -6% and 0.72.
In the same order, the values of `O=C(c1ccc(-c2ccc(O)cn2)cc1)N1CCCN2CCC[C@H]2C1` are -6% and 1.12.
For `COc1ccc(-c2nn(-c3ccc(C(F)(F)F)cc3)c(N)c2NC(=O)NCC2CCCCC2)cc1`, the “% Inhibition” value is 2% and the Z score was -0.35.
With `Cc1ccc(NC(=O)NC(=O)Cn2c(-c3ccccn3)n[nH]c2=O)cc1C`, the “% Inhibition” value is recorded as 3% and the Z score is recorded as -0.34.
For `COCc1nc(N2CC[C@H](O)C2)c2c(-c3ccccc3)csc2n1`, the “% Inhibition” value is reported as -4% and the Z score came to 0.42.
For `COc1ccc(NC(=O)c2sc(-n3nc(C)cc3C)nc2C)c(OC)c1`, in that order: -11% and 0.96.
For the compound `Cn1nnc(C(=O)N2CCC(c3ccccc3)(N3CCCC3)CC2)n1`, the “% Inhibition” value is given as 7% and the Z score is -1.29.
For `CN(CC(C)(CO)CO)c1ncc(-c2ccccc2)s1`, in that order: 37% and -4.72.
For `CC1CC1C(=O)Nc1cc(C(F)(F)F)n[nH]1` (centres undefined), in that order: -25% and 4.06.
For `CC(c1ccccn1)N(C)CC(O)c1ccc(F)cn1` (centres undefined), in that order: -2% and 0.3.
With `CCCOCC(=O)N[C@H]1CN(Cc2[nH]nc(C)c2Cl)C[C@@H]1C1CC1`, the “% Inhibition” value came out at 4% and the Z score is given as -0.51.
Consider `CC(C)c1nnc2c(NC[C@@H](C)CC(F)(F)F)nccn12`, for which the “% Inhibition” value amounted to 1% and the Z score is given as -0.14.
In the same order, the values of `CN1CCC(NC(=O)C2(O)CCCCC2)C1c1ccc(Cl)cc1` (centres undefined) are -17% and 1.69.
In the same order, the values of `Cc1c(CN2CC[C@H](C3CCCCC3)C2)cnn1C` are -8% and 1.31.
For `C[C@H](NC(=O)c1ccc(-c2ncon2)cc1)C1CCN(CC(F)(F)F)CC1`, in that order: 4% and -0.58.
In the case of `Cc1cc(Cl)c2ncc(C#N)c(N3CC[S+]([O-])CC(C)C3)c2c1` (centres undefined), the “% Inhibition” value is given as -10% and the Z score turned out to be 0.89.
For `CC(O)CN1CCN(C(=O)c2ccc(-c3ccccc3)[nH]2)C(C)C1` (centres undefined), in that order: -4% and 0.5.
For `O=C(c1csc(S(=O)(=O)NCc2cccs2)c1)N1CCCC1`, in that order: -11% and 1.14.
In the same order, the values of `CC(C)c1nnc(N2CCC(NC(=O)c3ccccc3)CC2)o1` are -11% and 2.01.
Turning to `CCC(CC)(CNC(=O)c1coc(C2CCOCC2)n1)OC`, the “% Inhibition” value is -2% and the Z score is given as 0.41.
For `O=C(NCCNC1=NS(=O)(=O)c2ccccc21)c1ccco1`, the “% Inhibition” value is recorded as -11% and the Z score came to 1.4.
